The target in the first assay is T1, Connexin43 protein (hemichannels of hCMVEC cells) (Homo sapiens, UniProt P17302).
T1 construct: endogenous in cells; host or cells: hCMVEC (human cerebral microvascular endothelial cells)
Test: not given
Type of assay: cell-based. Conditions: 1:1 with Peptide5 (100 μM), FIG. 6. Here is the method: (§1) Peptide5 interacting site on the Connexin43 protein was determined using a competition assay. Extracellular loop sequences (Auspep, Australia) were dissolved in miliQ H2O were at a stock concentration of 1 mM […]. Extracellular loop sequences were mixed with the native Peptide5 at 1:1 ratio (100 μM), which was left for 1 hour at room temperature prior to the experiment to allow competitive binding to occur. Following 1-hour incubation, extracellular loop sequence and peptide5 mixture was dissolved in injury solution and exposed to hCMVEC cells for 2 hours using the ischaemia-reperfusion model described above. Extracellular medium was then collected for ATP measurement.
as §1, with “interaction sites” for “interacting site”
With PGC ENVCY DKSFP ISHVR [EL1b], the “more effective by, in combination with Peptide5, compared to Peptide5 alone” value turned out to be 24.8±8.8%.

Staying with this assay, now noted: loop sequence mixed with Peptide5 at 1:1 ratio (100 μM), 2 hours, FIG. 6.
As for A FRCNT QQPGC ENVCY D [EL1c], the “ATP release, % of the injury control, extracellular loop sequence in combination with Peptide5” value is listed as 40.1±7.0%. ESAWG DEQSA FRCNT QQ [EL1a]: the “ATP release, % of the injury control, extracellular loop sequence in combination with Peptide5” value was 60.1±6.2%. On the same count and under the same terms, the result for K RDPCP HQ [EL2b] reads 75.5±7.4%; that for PGC ENVCY DKSFP ISHVR [EL1b], 29.3±5.5%.

A further assay deals with T2, hemichannel-mediated ATP release from hCMVEC cells (Homo sapiens, UniProt P17302).
T2 construct: endogenous in cells; host or cells: hCMVEC (human cerebral microvascular endothelial cells)
Briefly: In vitro ischemia injury ATP release assay (single alanine substituted and truncated peptides). Type of assay: cell-based. To be noted: 100 μM, FIG. 3. As to the method:
The human cerebral endothelial cells (hCMVEC) were plated at a density of 0.025×10^6 cells per well in a collagen-coated 12-well plate (1 μg/cm^2) a day prior to the experiment. Cells were incubated in culture medium overnight. Hypoxic, acidic, ion-shifted Ringer injury solution that mimics ionic concentrations and acid-base shifts of the interstitial space in hypoxic-ischemic brains (Bondarenko and Chesler, 2001, […]) was used to trigger hemichannel opening. The injury solution contained (in mM): 38 NaCl, 13 NaHCO3, 3 Na-gluconate, 65 K-gluconate, 38 NMDG-Cl, 1 NaH2PO4, and 1.5 MgCl2. The injury solution was bubbled in 95% N2, 5% CO2 gas (20 L/min) for 5 minutes and pH adjusted to 6.6 before use. The standard ringer solution contained (in mM): 124 NaCl, 3 KCl, 26 NaHCO3, 26 NaHCO3, 1 NaH2PO4, 1.3 CaCl2, 1.5 MgCl2, and 10 Glucose, and pH adjusted to 7.4 before use (Bondarenko and Chesler, 2001). In the ischemia injury model, hCMVEC cells were incubated for 2 hours in 500 μL injury solution+/−Peptide5 (100 μM) (O'Carroll et al., 2008, Cell communication & adhesion 15:27-42; Danesh-Meyer et al., 2012, Brain: a journal of neurology 135:506-520; Davidson et al., 2012, Annals of neurology 71:121-132; Davidson et al., 2013, Experimental neurology 248:301-308; Davidson et al., 2014, PloS one 9:e96558; Davidson et al., 2015, J Cereb Blood Flow Metab), or +/−extracellular loop sequences (Table 5), or modified peptides (Table 2, 3) dissolved in injury solution (500 μL) with a final concentration of 100 μM. For negative control, hCMVEC cells were incubated only in 500 μL standard ringer solution for 2 hours. For positive control, hCMVEC cells were incubated only in 500 μL […] for 2 hours. All incubations were conducted at 37° C. in 95% O2 and 5% CO2. At the end of each experiment, samples were removed and immediately placed on ice. The concentration of ATP in the samples was determined using a Luciferin/luciferase bioluminescence reaction (ATP Determination Kit, Molecular Probes) and detected using a luminescence plate reader (VICTOR X, Perkin Elmer #2030-0010). Standard curves were generated in each experiment from an ATP standard (0 to 500 nM) to convert bioluminescence units to ATP concentration. […] The data is presented as mean±standard error relative to the injury or injury-reperfusion positive control. Statistically significant differences between samples were tested using one-way analysis of variance and Tukey's multiple comparisons test.
Peptides listed in table 5 and 2 were assessed using the ischemia injury model in hCMVEC cells as described above, and the medium was collected for ATP release measurement.
The human cerebral endothelial cells (hCMVEC) were plated at a density of 0.025×10^6 cells per well in a collagen-coated 12-well plate (1 μg/cm^2) a day prior to the experiment. Cells were incubated in culture medium overnight. Hypoxic, acidic, ion-shifted Ringer injury solution that mimics ionic concentrations and acid-base shifts of the interstitial space in hypoxic-ischemic brains (Bondarenko and Chesler, 2001) was used to trigger hemichannel opening. The injury solution contained (in mM): 38 NaCl, 13 NaHCO3, 3 Na-gluconate, 65 K-gluconate, 38 NMDG-Cl, 1 NaH2PO4, and 1.5 MgCl2. The injury solution was bubbled in 95% N2, 5% CO2 gas (20 L/min) for 5 minutes and pH adjusted to 6.6 before use. The standard ringer solution contained (in mM): 124 NaCl, 3 KCl, 26 NaHCO3, 26 NaHCO3, 1 NaH2PO4, 1.3 CaCl2, 1.5 MgCl2, and 10 Glucose, and pH adjusted to 7.4 before use (Bondarenko and Chesler, 2001).
As for ADCFLSRPTEKT [Ala-1], the “ATP release compared to injury control (in words)” value is on record as “not significantly different”. With VACFLSRPTEKT [Ala-2], the “ATP release compared to native Peptide5 (in words)” value was “significantly different to native Peptide5”. Consider VDAFLSRPTEKT [Ala-3], for which the “ATP release compared to native Peptide5 (in words)” value was “significantly different to native Peptide5”. In the case of VDCALSRPTEKT [Ala-4], the “ATP release compared to injury control (in words)” value is given as “not significantly different to the injury control”.

In the case of VDCFASRPTEKT [Ala-5], the “ATP release compared to native Peptide5 (in words)” value is “significantly different to native Peptide5”. Regarding VDCFLARPTEKT [Ala-6], the “ATP release compared to injury control (in words)” value is “not significantly different to the injury control” and the “ATP release compared to native Peptide5 (in words)” value is reported as “no significant differences”.

Take VDCFLSAPTEKT [Ala-7]: the “ATP release compared to native Peptide5 (in words)” value was “significantly different to native Peptide5”. On the same count and under the same terms, under VDCFLSRATEKT [Ala-8] stands “significantly different to native Peptide5”; under VDCFLSRPTEAT [Ala-11], “significantly different to native Peptide5”.

The assay is the same for the next values; noted with them: 100 μM, FIG. 4.
With CFLSRPTEKT [mod-1], the “ATP release compared to injury control (in words)” value is given as “significantly different to the injury control” and the “ATP release compared to native Peptide5 (in words)” value is given as “not significantly different to native peptide5”.

Regarding LSRPTEKT [mod-2], the “ATP release compared to injury control (in words)” value was “not significantly different to the injury control” and the “ATP release compared to native Peptide5 (in words)” value was “significantly greater ATP release”. Turning to VDCFLS [mod-6], the “ATP release compared to injury control (in words)” value is listed as “not significantly different to the injury control” and the “ATP release compared to native Peptide5 (in words)” value was “significantly greater ATP release”.

Take VDCFLSRP [mod-5]: the “ATP release compared to injury control (in words)” value is given as “not significantly different to the injury control” and the “ATP release compared to native Peptide5 (in words)” value was “significantly greater ATP release”.

For VDCFLSRPTE [mod-4], the “ATP release compared to injury control (in words)” value is “not significantly different to the injury control” and the “ATP release compared to native Peptide5 (in words)” value is recorded as “significantly greater ATP release”.

The assay is the same for the next values; noted with them: 100 μM, FIG. 4, listed as Mod-1.
For the molecule CFLSRPTEKT [mod-1], the “ATP release compared to injury control (in words)” value was “significantly reduced ATP release”.

Another assay deals with Connexin43 protein (human, UniProt P17302 2-382). The experiment in a line: cell-based or functional assay.
Details: not given
As for CFLSRPTEKT [Modification 1], the “ATP release from hCMVEC cells, % of injury control” value is 49.1 % of injury control. As to VDCFLS [Modification 6], the “loss of ability to inhibit ATP release compared to native Peptide5” value was 68.8%.

Consider VDCFLSRP [Modification 5], for which the “loss of ability to inhibit ATP release compared to native Peptide5” value worked out at 59.6%. For VDCFLSRPTE [Modification 4], the “loss of ability to inhibit ATP release compared to native Peptide5” value was 43.9%.

In the case of LSRPTEKT [Modification 2], the “loss of ability to inhibit ATP release compared to native Peptide5” value was found to be 28.4%. Regarding SRPTEKT [Modification 3], the “loss of ability to inhibit ATP release compared to native Peptide5” value worked out at 59.2%.

The values above are taken from US20200129582A1, “NOVEL PEPTIDES AND PEPTIDOMIMETICS” (UNIVERSITY OF AUCKLAND, priority 2016, published 2020).
